Results on one molecule are retold here after patent US20250270306A1 (OSPEDALE SAN RAFFAELE S R L, published 2025).

This experiment addresses T1, Recombinant human IGFBP3 (human, UniProt P17936).
T1 construct: also called rhIGFBP3; hIGFBP-3
The experiment is described as follows: competitive ELISA: plate coated with rhIGFBP3 4 µg/ml; ecto-TMEM219 10 µg/ml added with the antibody (10 µg/ml per paragraph 174); detection anti-HisTag HRP; blocked ligand: ecto-TMEM219. On the procedure: FIG. 5. IGFBP3-Ecto-TMEM219 binding in the presence of newly generated anti-IGFBP3 mAbs (n=11, YU139 antibodies) or Ecto-TMEM219 alone or monoclonal anti-IGFBP3 commercially available (LSBIO LS-C45037/clone 83.8F9, mAnti-IGFBP3) tested by using a competitive ELISA screening assay. In this assay, the microtiter plate was coated with rhlGFBP3, and labeled ecto-TMEM219 added. Each candidate monoclonal antibody was added and its ability to displace ecto-TMEM219 was assessed by measuring Absorbance after the plate was washed. Boxed are anti-IGFBP3 antibodies able to achieve the highest reduction in Ecto-TMEM219 signal (1-way ANOVA, p<0.00001).
Microplate was coated with 50 μl/well of 4 μg/ml rhlGFBP3 dissolved in PBS or PBS alone (no coating). Plate was incubated 90 minutes at 37° C. and washed with PBS (300 μl/well) and incubated with the blocking reagent (200 μl/well) 2 hours at room temperature. Samples were then diluted in the diluent solution (50 μl/well) and added to the plate as follows: diluent solution (none), ecto-TMEM 10 μg/ml, ecto-TMEM 10 μg/ml+anti-IGFBP3 mAbs 10 μg/ml, anti-IGFBP3 mAbs 10 μg/ml alone. After washing steps, plate was then incubated at room temperature for 1 hour with anti 6×His tag HRP diluted 1:2000 in Diluent solution (50 μl/well). ELISA plate was then read after adding visualization solution at ELISAreader and adsorbance was measured.
(In general: An ELISA detects its analyte on a solid surface through an enzyme-linked reagent.)

T1 sequence (P17936 28-291 limits assumed): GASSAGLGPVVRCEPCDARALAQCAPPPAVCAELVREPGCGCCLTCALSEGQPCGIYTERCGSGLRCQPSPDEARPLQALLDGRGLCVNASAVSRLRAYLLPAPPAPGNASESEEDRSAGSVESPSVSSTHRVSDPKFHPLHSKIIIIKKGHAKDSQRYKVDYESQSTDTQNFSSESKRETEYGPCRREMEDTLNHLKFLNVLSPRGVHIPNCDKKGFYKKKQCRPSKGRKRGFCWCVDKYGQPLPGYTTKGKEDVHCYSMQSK

B1: YU139-C02 (Fc fusion)
VH: EVQLVQSGAEVKKPGASVKVSCKASGYTFTSYGISWVRQAPGQGLEWMGWISAYNGNTNYAQKLQGRVTMTTDTSTSTAYMELRSLRSDDTAVYYCARVPSEYYDFWSGYYTEENAFDIWGQGTMVTVSS
VL: [… about 100 residues …]TFGQGTKVEIK
B1: the binding result is listed as “binds”.
